Measurements published in paper PMC6919601, “Identification of Plasmodium dipeptidyl aminopeptidase allosteric inhibitors by high throughput screening” (PLoS ONE, 2019).
“And” between values parts separate entries of the source, which are not always exact repeats. Identical values can stand only once. In all, about 110,000 compounds went through this assay and about 230 (0.21%) showed an effect of 50% or more. Some of the results follow.

target: DPAP1 (Plasmodium falciparum, UniProt Q8IIJ9); assay: primary screen, percent inhibition; read by cleavage of a fluorogenic dipeptide substrate; higher = more effect of the substance; parameters: species or system P. falciparum D10 trophozoite lysates; single well
Sequence (Q8IIJ9 whole entry, looked up): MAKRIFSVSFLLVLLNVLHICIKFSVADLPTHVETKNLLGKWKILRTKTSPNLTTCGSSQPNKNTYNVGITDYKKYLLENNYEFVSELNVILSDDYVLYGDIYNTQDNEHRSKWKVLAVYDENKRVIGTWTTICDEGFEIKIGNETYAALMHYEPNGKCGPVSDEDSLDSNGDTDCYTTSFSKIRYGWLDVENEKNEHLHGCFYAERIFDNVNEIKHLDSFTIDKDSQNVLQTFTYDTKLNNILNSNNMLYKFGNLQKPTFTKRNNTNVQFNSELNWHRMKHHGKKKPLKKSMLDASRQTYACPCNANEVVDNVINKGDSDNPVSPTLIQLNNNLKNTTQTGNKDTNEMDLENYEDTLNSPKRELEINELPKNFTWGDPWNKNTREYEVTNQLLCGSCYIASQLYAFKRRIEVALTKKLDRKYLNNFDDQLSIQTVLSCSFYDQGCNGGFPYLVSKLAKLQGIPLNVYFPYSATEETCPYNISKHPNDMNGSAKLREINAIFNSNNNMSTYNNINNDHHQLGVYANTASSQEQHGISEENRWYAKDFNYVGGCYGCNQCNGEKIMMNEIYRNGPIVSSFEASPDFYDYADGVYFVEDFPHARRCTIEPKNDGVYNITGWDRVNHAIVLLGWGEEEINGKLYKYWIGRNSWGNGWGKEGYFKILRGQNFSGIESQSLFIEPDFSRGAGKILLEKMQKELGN
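Also: 30 min substrate incubation versus DMSO and 10 µM JCP410 controls.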

Row | Structure (SMILES) | % Inhibition @ 10 uM
1 | CC(=O)c1ccc(N2CCN(Cc3ccccc3Cl)CC2)cc1 | 4.55%
2 | COc1ccc(Cl)cc1N(CC(=O)N1CCN(C)CC1)S(C)(=O)=O | 3.74%
3 | Cc1ccccc1OCC(=O)Nc1nc(C)c(C(=O)N(C)C)s1 | -1.28%
4 | COc1cccc(C2=NN(C(=O)C3CC3)C(O)(C(F)(F)F)C2)c1 (centres unmarked) | -6.17%
5 | Clc1ccc(OCCOCCN2CCCCC2)cc1 | -1.82%
6 | CCN(Cc1ccccc1)C(=O)COc1ccccc1 | -5.92%
7 | c1ccc2sc(N3CCOCC3)nc2c1 | -2.78%
8 | CCN1CCN(CCCNC(=O)c2oc3c(c2C)-c2nn(Cc4ccccc4Cl)cc2CC3)CC1 | 9.55%
9 | O=C(Cn1cc(S(=O)(=O)Cc2ccccc2F)c2ccccc21)NCCc1ccccc1 | 0.458%
10 | O=C(NCCCN1CCOCC1)Nc1noc2c1COc1ccccc1-2 | -2.57%
11 | CCOC(=O)c1[nH]c2ccc(OC)cc2c1NC(=S)N1CCN(C(=O)c2ccco2)CC1 | 0.351%
12 | COC1CCCCC1NCCc1ccc(Cl)cc1Cl (centres unmarked) | -1.54%
13 | Cc1ccccc1Cc1c(C)nc2c(C(=O)NCCc3ccc(Cl)cc3)cnn2c1C | -5.8%
14 | COc1ccc(C2C(C#N)=C(C)N(C)C3=C2C(=O)c2ccccc23)cc1 (centres unmarked) | -4.67%
15 | COc1cccc(/C=C(\C#N)c2nc3cc(C)ccc3[nH]2)c1OC | -2.07%
16 | O=C(CNS(=O)(=O)c1cc(Cl)ccc1Cl)N1CCN(c2ccccc2F)CC1 | -4.14%
17 | O=C1C2C(C(=O)N1c1ccc3ccccc3c1)C1C=CC2C12CC2 (centres unmarked) | -3.26%
18 | COC(=O)c1sccc1NC(=O)CSCCc1ccncc1 | -4.17%
19 | Cc1ccc(S(=O)(=O)Nc2nc(N)n(-c3ccccc3)n2)cc1 | 2.56%
20 | CC(C)CC(C(=O)NCC#N)c1cccc(-c2cccc(S(=O)(=O)N3CCN(C)CC3)c2)c1 (centres unmarked) | -4.72%
21 | CCN(CC)C(=O)c1sc2nc3n(c(=O)c2c1C)CCCCC3 | -4.11%
22 | CCCCNc1nc2c(S(=O)(=O)c3ccccc3)nnn2c2ccccc12 | -14.7%
23 | CCCCc1ccc(-c2c(C#N)c(N)nc3c2CCCCC3)s1 | 7.56%
24 | Cc1cccc(OCCn2c(=O)n(C)c3ccccc32)c1 | 1.67%
25 | CCc1ccc(C(=O)NCC2(c3ccccc3)CCOCC2)o1 | 2.95%
26 | Cc1ccc(S(=O)(=O)NC(=O)Nc2cccc(Cl)c2C)cc1 | 5.66%

Row | Structure (SMILES) | % Inhibition @ 10 uM
27 | CC(NCC1CCCCC1)c1ccccc1 (centres unmarked) | 0.722%
28 | CCOc1ccccc1/C=C(\C#N)c1nc2cc(C)ccc2[nH]1 | -2.28%
29 | CCCc1nn(-c2ccc(F)cc2)c(O)c1/C=N/Cc1ccco1 | 2.18%
30 | COC(=O)c1sccc1NC(=O)C1=C(C)C(=O)OC12CCN(C(C)=O)CC2 | 2.37%
31 | Cc1ccccc1OCCCCN1CCOCC1 | -5.94%
32 | C=CCn1c(S)nnc1-c1cccc(C)c1 | -2.35%
33 | CN(Cc1ccco1)C(=O)c1nc(-c2ccncc2)no1 | -6.66%
34 | CCOC(=O)CNC(=O)c1ccsc1 | 3.83%
35 | Cc1cc(C)nc(NS(=O)(=O)c2cccs2)c1 | 2.06%
36 | CC(=O)N(C)c1ccc(NC(=O)COc2ccc(Br)c(C)c2)cc1 | 2.27%
37 | Cc1cc(/C=C2/NC(=O)N(c3cccc(Cl)c3)C2=O)c(C)n1-c1ccccn1 | 1.52%
38 | CCC1(CC)Cc2ccccc2C(N2CCOCC2)=N1 | 3.99%
39 | O=C(NC(=S)Nc1c(Cl)cc(Cl)cc1Cl)c1ccco1 | -0.0217%
40 | O=C(NCCc1ccccc1)c1ccc(CSc2nc3ccncc3[nH]2)cc1 | -3.35%
41 | CCCSCCCNC(=O)CS(=O)(=O)Cc1nc(-c2ccccc2F)oc1C | 4.77%
42 | NC(=O)c1nn2c(c1Cl)NC(c1ccc(Cl)cc1)CC2C(F)(F)F (centres unmarked) | -0.996%
43 | COc1cc(-c2nnc3sc(Cc4ccccc4)nn23)cc(OC)c1OC | 2.89%
44 | Cc1[nH]c2ccccc2c1CC/N=C/C1=C(O)CC(c2ccc(F)cc2)CC1=O (centres unmarked) | 2.24%
45 | CCOc1ccc(C2CC(=O)NC(SCC(=O)NC3CCCCC3)=C2C#N)cc1 (centres unmarked) | 30.3%
46 | CCOC(=O)CSc1nc2cc(C)ccc2[nH]1 | 0.135%
47 | CCOc1ccc(N2C(=O)C3CCC(C)CC3C2=O)cc1 (centres unmarked) | -2.8%
48 | Cc1sc(Nc2ccccc2)nc1-c1ccc(Cl)cc1 | 1.64%
49 | COc1ccc(-n2c(Cc3cccn3C)nnc2SCC(N)=O)cc1 | 2.74%
50 | N#Cc1c(N)nc2c(c1-c1ccc(Cl)cc1Cl)CCCCC2 | 4.67%
51 | O=C(NC1CCCC1)N(Cc1ccc2c(c1)OCO2)C1CCN(Cc2ccccc2)CC1 | -1.41%
52 | Cc1nn(-c2ccccc2)c2c1C(c1ccccc1Br)C(C#N)=C(N)O2 (centres unmarked) | -2.8%

Row | Structure (SMILES) | % Inhibition @ 10 uM
53 | COc1cc2c(cc1OC)C(C(=O)N1CCN(c3ccccn3)CC1)C(c1cccnc1)N(C)C2=O (centres unmarked) | -1.31%
54 | COc1cc(/C=C2\S/C(=N/c3ccc(C(=O)O)cc3)N(C)C2=O)ccc1O | 6.69%
55 | CC(=O)N1CCC(N2CCN(c3ccc([N+](=O)[O-])cc3)CC2)CC1 | 0.273%
56 | CCCC(=O)n1nc(-c2ccc(OC)cc2)nc1N | -8.71%
57 | CCOc1cc(/C=C2\C(=N)N3C(C)=CSC3=NC2=O)ccc1OCc1ccc2c(c1)OCO2 | 2.25%
58 | Cc1cc(C)nc(NC(=O)C2c3ccccc3Oc3ccccc32)c1 | -1.06%
59 | O=C(Nc1ccc2c(c1)OCO2)C1CC1c1ccccc1 (centres unmarked) | -7.81%
60 | COc1ccc(OC)c(NC(=O)COc2ccc(Br)cc2)c1 | -3.26%
61 | Cc1cc(-c2ccc(C)c(S(=O)(=O)NCC3CCN(Cc4cccc(F)c4)CC3)c2)on1 | -1.05%
62 | CCc1nnc2sc(-c3ccccc3OC)nn12 | 0.635%
63 | CCOC(=O)C1=C(CC)OC(N)=C(C#N)C1c1cc(Br)cs1 (centres unmarked) | -1.38%
64 | CCSc1nc2sc3c(c2c2nncn12)CCN(C)C3 | -3.77%
65 | COc1ccccc1/C=C/C(=O)N1CCCC(c2ccccc2)C1 (centres unmarked) | -0.0829%
66 | Cc1oc(-c2ccccc2Cl)[n+]([O-])c1C | -5.32%
67 | COc1cc(OC)c(OC)cc1CN1CCN(Cc2c[nH]c3ccccc23)CC1 | -2.88% and -6.26%
68 | CCCc1nc2c3ccccc3nc(NCCc3ccc(Cl)cc3)n2n1 | 2.6%
69 | Cc1oc(-c2ccc(Cl)cc2)nc1CSCC(=O)NCCN1CCOCC1 | -1.27%
70 | COc1ccc(OC)c(NC(=O)c2cccc(OC(F)F)c2)c1 | -6.05%
71 | CC[C@H](NC(=O)[C@@H](O)CS(=O)(=O)Cc1ccccc1OC(F)F)C(=O)c1nc2ccccc2s1 | -5.21%
72 | O=S(=O)(c1ccc(-c2ccccc2)cc1)N1CCSC1c1ccccc1 (centres unmarked) | 24.4%
73 | COc1cc(NC(=O)c2ccc(Br)cc2)c(OC)cc1Cl | -2.63%
74 | CCN(CC)CCN(CC)Cc1cccc(C)c1 | -2.34%
75 | C/C(=C\c1ccccc1)CN1CCN(c2ccccc2)CC1 | 4.28%
76 | CC(=O)N1c2ccccc2CCc2ccc(NC(=O)c3ccccc3)cc21 | -3.79%
77 | OC1CCCN(Cc2ccc(Cl)c(Cl)c2)C1 (centres unmarked) | 1.4%
78 | O=C(NCCN1CCOCC1)c1cc2n(n1)C(C(F)(F)F)CC(c1ccc(F)cc1)N2 (centres unmarked) | -5.98%

Row | Structure (SMILES) | % Inhibition @ 10 uM
79 | CCOc1ccccc1CNCc1c(C(=O)O)n(Cc2ccc(F)cc2)c2cc(OC)ccc12 | 2.06%
80 | Cc1cc(C)cc(Oc2nc3c(C)cccn3c(=O)c2/C=C(\C#N)S(=O)(=O)c2ccccc2)c1 | 5.21%
81 | NS(=O)(=O)c1cc(C(=O)O)ccc1F | -1.99%
82 | Cc1ccc(OCCn2cc(/C=C/C(=O)O)c3ccccc32)cc1 | -3.06%
83 | CN(C)c1ccnc2sc3c(=O)n(-c4ccc(Cl)cc4)cnc3c12 | -0.591%
84 | Cc1ccccc1-c1nc(NC(=O)CSc2nnc3ccccn23)ns1 | 0.628%
85 | CCc1nnc(NC(=O)C2CCC(C/N=c3/c(N4CCC(C)CC4)c(O)c3=O)CC2)s1 (centres unmarked) | 5.91%
86 | Cc1nn(-c2ccccn2)c2c1C(O)=C(/C=N/c1ccccc1C(=O)O)CC2 | -0.25%
87 | Cc1ccc(C)c(NC(=O)CN(c2cccc3ccccc23)S(C)(=O)=O)c1 | 0.793%
88 | CC1(C)CC(=O)c2c(nc3ccc(Br)cc3c2N)C1 | 1.9%
89 | O=C1c2ccccc2C(=O)N1CC(=O)N1c2ccccc2CCc2ccccc21 | -8.06%
90 | CCOC(=O)C1=C(c2ccc(CC)cc2)C(=O)c2ccccc2C1=O | 3.83%
91 | CC(C)c1ccc(OCCN2CCNCC2)cc1 | 5.3%
92 | CCC/C(CC(C)C)=C(/C#N)C(=O)OCC | -6.99%
93 | O=S(=O)(NCCOc1ccccc1Cl)c1ccc2ccccc2c1 | 2.18%
94 | COc1ccc(N2C(=O)CC(Sc3nc(C)ccc3C#N)C2=O)cc1 (centres unmarked) | 2.67%
95 | CC[C@@H](C)[C@H](NC(=O)c1ccccc1)C(=O)N[C@@H](CCc1ccccc1)C(=O)COCc1ccccc1 | -2.35%
96 | O=C(O)c1ccc(NC2=C(Cl)C(=O)N(c3ccccc3)C2=O)cc1 | -8.35%
97 | CC(C)Cn1cc(NC(=O)N(C)C2CCCCC2)c2ccccc2c1=O | -6.33%
98 | CSc1ccc(Cl)c(C(=O)Nc2sc(C)c(C)c2C(N)=O)c1 | 2.99%
99 | COC(=O)c1sccc1NC(=O)c1cc(C2CC2)nc2c1c(C)nn2-c1ccc(C)cc1 | 3.37%
100 | O=C(c1ccco1)N1CCN(C(=O)C(c2ccccc2)N2Cc3ccccc3C2=O)CC1 (centres unmarked) | -4.38%
101 | O=C(NCc1ccccn1)c1c(F)cccc1F | 1.64%
